This passage reports percent labeling results from PubChem BioAssay AID2202238 (Ras Initiative Chemistry Research Team, Frederick National …, 2025).

SMILES strings stand for the structures. Screen size: about 2,200 compounds; fewer than 10 were called active. The list shows a part of the results. The source made no clear call on entries shown without one.

In this assay the target is GTPase KRas (Homo sapiens) (UniProt P01116). Nature of the assay: Covalent labelling of cysteine mutants by fragments, read by mass spectrometry (AID 2202238). Also noted: protein at 5 µM with 500 µM competing thiol for 1.5 h. To be noted: KRAS G12D cysteine mutants, disulfide tethering, MALDI-TOF labeling; stronger effect = higher value; H27C mutant labeling; fragment at 500 µM.
Sequence of UniProt P01116 (P01116 whole entry, looked up, the tested form may be a part): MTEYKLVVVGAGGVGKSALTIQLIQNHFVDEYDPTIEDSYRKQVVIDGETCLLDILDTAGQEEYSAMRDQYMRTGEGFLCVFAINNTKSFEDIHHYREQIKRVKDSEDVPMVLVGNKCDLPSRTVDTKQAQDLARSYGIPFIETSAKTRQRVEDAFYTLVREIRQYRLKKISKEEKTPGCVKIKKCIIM
Compound `O=C(CCS)NCc1cc(Oc2cccc(F)c2)ccn1` had a percent labeling of 39.1%.

In the case of `O=C(NCCS)c1cncn1-c1ccc(F)cc1`, the percent labeling was determined as 42.2%. Next, `CCN(CC)C(C(=O)NCCS)c1cc(Cl)cc(Cl)c1` (stereo unspecified): 29.5%; `O=C(CCS)N1Cc2ncccc2N2CCC[C@H]2C1`: 26.5%. With `CC1CN(C(=O)CCS)CCc2cc(Br)c(O)cc21` (stereo unspecified) the figure was 36.4%; with `CC(CC(=O)NCCS)c1ccccc1Br` (stereo unspecified), 27.9%; with `Cc1cc2occ(CC(=O)NCCS)c2cc1C`, 21.4%. Next, `O=C(NCCS)c1cc(-c2ccco2)n(-c2cccc(Cl)c2)n1`: 24.4%; `O=C(NCCS)c1c(C(F)(F)F)oc2ccccc12`: 22.6%. Consider `O=C(NCCS)c1cccnc1OCC(F)(F)F`, for which the percent labeling came to 30.7%.

Take `O=C(NCCS)c1cncc(N2CCCC2=O)c1`: the percent labeling amounted to 39.8%.

With `O=C(CCS)NCCOc1ncc(C(F)(F)F)cc1Cl`, the percent labeling stood at 30.8%. Next, `COC1(c2nc(Cc3ccccc3)no2)CCN(C(=O)CCS)CC1`: 33.2%; `O=C(NCCS)C1CC12CCCc1ccccc12` (stereo unspecified): 29.7%; `Cc1nc(C(C)(C)C)[nH]c(=O)c1C(=O)NCCS`: 27.2%. With `CCc1csc(-n2cc(C(=O)NCCS)cn2)n1` the figure was 37.2%.

Take `Cc1ccc(N(Cc2cnn(C)c2)C(=O)CCS)cc1`: the percent labeling amounted to 41.9%. Next, `O=C(NCCS)c1nn(-c2cccc(Br)c2)c2c1CCCC2`: 24.4%. Compound `Cc1[nH]c2ccccc2c1-c1csc(NC(=O)CCS)n1` showed a percent labeling of 31%. Next, `O=C(NCCS)C12CCC(C(F)(F)F)(CC1)CC2`: 35.1%. As to `O=C1COc2cc(F)c(C(=O)NCCS)cc2N1`, the percent labeling was 29.3%. With `O=C(CN(Cc1ccco1)c1cccc(Cl)c1)NCCS` the figure was 22.3%; with `Cn1c(C(=O)NCCS)cc2ccccc2c1=O`, 44.4%. With `O=C(CCS)Nc1cnc(Oc2ccccc2)nc1` the figure was 29.5%. Turning to `O=C(Cc1c[nH]c2ccccc12)NC1(C(=O)NCCS)CCCC1`, the percent labeling was found to be 14.4%. `O=C(CCS)NCc1cc(-c2ccco2)on1` came in with a percent labeling of 34.5%.

Consider `O=C(NCCS)[C@H]1CCO[C@@H]1c1cccnc1`, for which the percent labeling was 21.9%.

`CC(NC(=O)CCS)C(O)c1cccc(F)c1` (stereo unspecified) showed a percent labeling of 30.5%. With `CC1CN(Cc2ccccc2)CC1C(=O)NCCS` (stereo unspecified) the figure was 50.4%; with `CCn1cc(Cn2cc(Cl)c(NC(=O)CCS)n2)cn1`, 44%. Compound `Cn1nccc1-c1[nH]ncc1CNC(=O)CCS` had a percent labeling of 39.5%. Next, `O=C(CCS)N1CCC(c2cccc(F)c2)CC1`: 45.7%; `CCn1ncc(C(=O)NCCS)c1-c1ccccc1`: 42.4%; `O=C(NCCS)C1CCN(S(=O)(=O)c2ccccc2C2CCCCC2)CC1`: 6.7%. In turn, `O=C(NCCS)C1CC(=O)N(CCOc2ccccc2Cl)C1` (stereo unspecified) had a percent labeling of 34.4%. With `COc1cc(NC(=O)CCS)c(C(N)=O)cc1OC` the figure was 44.3%; with `O=C(NCCS)C1CC(=O)N(Cc2ccco2)C1` (stereo unspecified), 24.3%. On to `COc1ccc2c(c1)OC(C)(C)CN(C(=O)CCS)C2`, for which the percent labeling was found to be 42%. Next, `Cc1cc(OC(F)F)c(C(=O)NCCS)s1`: 32.3%; `O=C(NCCS)c1ccc(C(F)(F)F)c(=O)[nH]1`: 18.9%. With `Cc1cc(NC(=O)CCS)nn1CC(N)=O` the figure was 33.3%; with `O=C(NCCS)c1c(C2CC2)nc2sccn12`, 50.6%; with `O=C(CCS)NCC(O)(c1ncco1)C(F)(F)F` (stereo unspecified), 31.5%.

As to `CC1(C(=O)NCCS)CCN(c2ccncc2)CC1`, the percent labeling was 65%. With `O=C(CCS)NC1(Cc2ccc(F)cc2)CC1` the figure was 30.4%; with `O=C(NCCS)c1cncc(-c2ccc3c(c2)CCO3)c1`, 42.6%. In turn, `CN1Cc2ccc(CNC(=O)CCS)cc2C1` registered a percent labeling of 28.4%. `COc1cccc2c1CCN(C(=O)CCS)CC2` displayed a percent labeling of 34.2%. The compound `Cc1ccc(CNC(=O)CCS)c(OC2CCCC2)c1` showed a percent labeling of 30.5%. As for `CN(Cc1ccccc1C(F)(F)F)C(=O)CCS`, the percent labeling was found to be 39.2%.

As for `Cc1cc(=O)[nH]c(N2CCN(C(=O)CCS)CC2)n1`, the percent labeling amounted to 41.2%. Next, `O=C(NCCS)C1CCCN(Cc2cccc(F)c2)C1` (stereo unspecified): 38.9%; `O=C(CCS)NCCc1cc(-c2ccncc2)n[nH]1`: 37.2%. Consider `O=C(NCCS)c1cncn1-c1ccccc1Cl`, for which the percent labeling amounted to 52.3%. With `CC(C)n1nc(C(=O)NCCS)c2ccccc2c1=O` the figure was 36.6%. In turn, `O=C(CCn1cc(Br)ccc1=O)NCCS` displayed a percent labeling of 37.9%.

The compound `CCCN1C(=O)CCc2cc(NC(=O)CCS)ccc21` gave a percent labeling of 43.1%. The compound `O=C(NCCS)c1cnnc(-c2ccccc2)c1` came in with a percent labeling of 36.7%. With `CCCn1c(=O)[nH]c(=O)c2cc(C(=O)NCCS)cnc21` the figure was 32.9%.

`Cc1noc(C)c1CN(C)CCC(=O)NCCS` gave a percent labeling of 29.6%. With `O=C(NCCS)[C@@H]1Cc2ccccc2O[C@H]1C(F)(F)F` the figure was 29%; with `O=C(NCCS)c1csc(Nc2cc(F)cc(F)c2)n1`, 39.2%; with `Cc1ccc(C(=O)NCCS)cc1-n1cccc1`, 21.8%. With `Cc1csc2ncc(C(=O)NCCS)c(=O)n12` the figure was 66.9%; with `Cc1cc(C(F)F)n2ncc(C(=O)NCCS)c2n1`, 38.2%; with `Cc1ccc(Nc2cccc(C(=O)NCCS)c2)nn1`, 47.8%. With `Cc1ccn(-c2ccccc2C(=O)NCCS)n1` the figure was 29.2%; with `O=C(NCCS)C1(C2CCOCC2)CCOCC1`, 30.8%. Take `CC1(C)CNC(=O)c2c(C(=O)NCCS)coc2C1`: the percent labeling was 31.9%. With `O=C(NCCS)c1ccc2cc(O)ccc2c1` the figure was 36.6%; with `CC(C)CNC(=O)N1CCCC(CC(=O)NCCS)C1` (stereo unspecified), 21.7%.
